The other results are listed elsewhere or left out. The full chains were built here from the parent and the listed change. Inactive controls read about 0.05.
B1: TEV protease; numbered along this chain (parent)
chain: MGESLFKGPRDYNPISSSICHLTNESDGHTTSLYGIGFGPFIITNKHLFRRNNGTLVVQSLHGVFKVKDTTTLQQHLVDGRDMIIIRMPKDFPPFPQKLKFREPQREERICLVTTNFQTKSMSSMVSDTSCTFPSGDGIFWKHWIQTKDGQCGSPLVSTRDGFIVGIHSASNFTNTNNYFTSVPKNFMELLTNQEAQQWVSGWRLNADSVLWGGHKVFMVKPEEPFQPVKEATQL

Variants of: B1
Assay: raw area under fraction-flipped curve 0-4 h after induction (AUC4h, not background-subtracted), DNA-recorder readout of cleavage of the substrate (dimensionless); higher = more cleavage of the substrate by the protease variant
Conditions: temperature: 34 °C; time window: 0-4 h after rhamnose induction
Description: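 In vivo DNA recorder in E. coli TOP10(DE3) ΔrhaA at 34 °C. Each TEVp single-site mutant (parent TEVp 0) is paired with a single-site variant of the 7-mer TEVs (canonical ENLYFQ|S). The substrate sits between flexible linkers in a Bxb1-sfGFP-TEVs-SsrA fusion, so cleavage stabilises Bxb1 and speeds flipping of a recombination array, read by NGS. The value is the raw area under the fraction-flipped curve over 0-4 h after rhamnose induction (AUC4h), with ≥20 reads per time point. It is not background-subtracted; inactive controls average about 0.047.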
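Also: Bxb1 expression induced with 0.2% (w/v) L-rhamnose at OD600 near 0.5, cultures sampled hourly, flipped fraction per protease–substrate barcode pair counted by paired-end Illumina sequencing.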

Variant | area with substrate ENLYFQA | area with substrate ENLYFQC | area with substrate ENLYFQD | area with substrate ENLYFQH | area with substrate ENLYFQI | area with substrate ENLYFQK | area with substrate ENLYFQL | area with substrate ENLYFQM | area with substrate ENLYFQN | area with substrate ENLYFQQ | area with substrate ENLYFQR | area with substrate ENLYFQS | area with substrate ENLYFQT | area with substrate ENLYFQV | area with substrate ENLYFQW | area with substrate ENLYFQY | area with substrate ENLYFQF | area with substrate ENLYFQP | area with substrate ENLYFQG | area with substrate ENLYFQE
N186L | 0.087 | 0.123 | 0.0737 | 0.0804 | 0.0581 | 0.0574 | 0.0568 | 0.0799 | 0.0739 | 0.054 | 0.0549 | 0.109 | 0.0598 | 0.0516 | 0.0679 | 0.0646 | – | – | – | –
Q197G | 0.0798 | 0.101 | 0.069 | 0.0678 | 0.0657 | 0.0644 | – | 0.0813 | – | – | – | 0.091 | 0.0786 | 0.0404 | – | 0.0774 | 0.0651 | 0.0454 | – | –
V183T | 0.0947 | 0.0993 | – | 0.104 | 0.0452 | 0.052 | 0.0542 | 0.0873 | 0.0811 | – | 0.0578 | 0.104 | 0.0382 | 0.0626 | – | 0.0834 | 0.069 | 0.0686 | 0.0913 | –
H215W | 0.0635 | 0.0438 | 0.061 | 0.0625 | 0.0689 | – | 0.0632 | 0.0639 | 0.0438 | 0.0542 | 0.0441 | 0.0612 | 0.0521 | – | 0.0597 | 0.0556 | 0.0583 | 0.0522 | 0.06 | 0.0508
H215D | 0.0707 | 0.0602 | 0.063 | 0.0797 | 0.0532 | 0.0438 | 0.0635 | 0.0644 | 0.0632 | – | 0.0634 | 0.0603 | – | – | 0.0504 | 0.0807 | – | – | 0.0656 | –
N177H | 0.0997 | – | 0.0772 | 0.0781 | 0.0496 | – | 0.0517 | 0.0699 | 0.0662 | – | 0.0613 | 0.0898 | 0.0625 | 0.0538 | 0.0639 | 0.0655 | – | 0.0607 | 0.104 | –
N177A | 0.104 | – | 0.0687 | – | 0.0624 | 0.074 | – | 0.109 | 0.0785 | 0.0738 | 0.0604 | 0.105 | 0.0654 | – | – | 0.0832 | 0.056 | – | 0.127 | 0.0766
E224F | 0.0847 | – | – | 0.0711 | – | 0.0677 | 0.0638 | – | – | – | – | 0.0886 | 0.0782 | 0.0403 | 0.0544 | – | 0.0806 | – | 0.0761 | –
T233K | 0.102 | 0.114 | – | 0.0865 | – | 0.0543 | – | – | – | – | 0.0463 | 0.107 | 0.0644 | – | 0.0853 | 0.0865 | 0.0508 | – | 0.0821 | –
T233H | 0.14 | 0.103 | – | 0.0709 | 0.0799 | 0.0598 | 0.0588 | 0.0994 | – | 0.0787 | 0.0763 | 0.102 | 0.063 | – | 0.0553 | 0.0478 | 0.0785 | – | 0.105 | –
T233G | 0.0796 | 0.1 | 0.0733 | – | 0.0586 | 0.0461 | 0.0585 | – | – | – | 0.0578 | 0.111 | 0.0672 | 0.0665 | 0.073 | – | – | 0.0601 | 0.101 | –
I15S | – | 0.103 | 0.0505 | 0.0421 | 0.0509 | 0.0531 | 0.0588 | 0.0701 | 0.0572 | 0.0466 | 0.0619 | 0.0746 | 0.0574 | 0.0764 | – | 0.0724 | – | 0.0433 | 0.0508 | 0.062

From the supplement of paper PMC12217912
